Laboratory results as given in paper PMC4336329 (PLoS ONE, 2015).
The campaign covered roughly 310,000 compounds. About 2,200 (0.71%) showed an effect of 50% or more. The effect is printed as a negative number. The list shows a part of the results.

Biological target: human ether-à-go-go-related gene (hERG) potassium channel (human, UniProt Q12809)
Assay: primary screen, population patch clamp on CHO cells stably expressing hERG

Sequence of human ether-à-go-go-related gene (hERG) potassium channel (Q12809 whole entry, looked up): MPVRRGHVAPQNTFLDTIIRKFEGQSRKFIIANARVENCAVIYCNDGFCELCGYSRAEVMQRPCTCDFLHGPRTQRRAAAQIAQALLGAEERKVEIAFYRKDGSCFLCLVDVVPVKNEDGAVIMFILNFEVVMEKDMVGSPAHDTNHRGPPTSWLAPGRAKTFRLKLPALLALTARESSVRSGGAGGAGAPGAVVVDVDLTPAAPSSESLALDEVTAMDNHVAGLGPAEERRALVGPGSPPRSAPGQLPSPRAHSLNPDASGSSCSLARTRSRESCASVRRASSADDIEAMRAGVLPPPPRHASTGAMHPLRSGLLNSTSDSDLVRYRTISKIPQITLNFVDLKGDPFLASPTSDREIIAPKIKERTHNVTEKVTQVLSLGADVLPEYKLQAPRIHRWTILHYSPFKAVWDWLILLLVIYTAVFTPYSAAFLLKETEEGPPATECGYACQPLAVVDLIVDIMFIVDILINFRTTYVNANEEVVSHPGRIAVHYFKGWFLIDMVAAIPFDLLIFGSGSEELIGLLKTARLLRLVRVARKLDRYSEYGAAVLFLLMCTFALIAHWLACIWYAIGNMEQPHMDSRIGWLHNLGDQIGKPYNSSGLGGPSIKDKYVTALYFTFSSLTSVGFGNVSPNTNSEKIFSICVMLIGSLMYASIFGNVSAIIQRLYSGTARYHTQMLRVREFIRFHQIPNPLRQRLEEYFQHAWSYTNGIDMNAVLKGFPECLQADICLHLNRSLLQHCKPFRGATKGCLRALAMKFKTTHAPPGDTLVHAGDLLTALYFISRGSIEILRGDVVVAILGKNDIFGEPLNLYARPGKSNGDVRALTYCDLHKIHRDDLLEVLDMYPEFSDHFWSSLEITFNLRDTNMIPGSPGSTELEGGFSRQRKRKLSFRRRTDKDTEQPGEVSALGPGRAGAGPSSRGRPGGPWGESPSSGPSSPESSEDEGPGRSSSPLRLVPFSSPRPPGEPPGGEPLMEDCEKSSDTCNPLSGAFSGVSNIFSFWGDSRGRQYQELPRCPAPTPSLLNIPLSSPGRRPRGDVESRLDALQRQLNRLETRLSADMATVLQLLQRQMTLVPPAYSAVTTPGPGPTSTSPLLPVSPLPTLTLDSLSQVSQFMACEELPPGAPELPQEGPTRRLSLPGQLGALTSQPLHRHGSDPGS

SMILES | hERG current change (%, negative = inhibition) at 1uM
CCC(CO)Nc1nc(CN2CCCCC2)nc2scc(-c3ccccc3)c12 (stereo not drawn) | -10.9%
O=[N+]([O-])c1ccc(S(=O)(=O)N(CC(O)CN2CCCCC2)c2ccccc2)cc1 (stereo not drawn) | -80.4%
Cc1cc(C)cc(C(=O)Nc2cccnc2Cl)c1 | 6.12%
O=c1[nH]c(=O)n(Cc2ccc(F)cc2)c(O)c1C=NCCN1CCCCC1 | 0.929%
Cc1cc(NC(=O)CSc2nc(=O)n(CCN(C)C)c3c2CCCC3)no1 | 8.04%
CCC(=O)c1ccc(OCC(=O)OCC(=O)NCC2CCCO2)cc1 (stereo not drawn) | 12.2%
CCc1ccc(N2C(=O)C3CCCN3C2=S)cc1 (stereo not drawn) | 14.2%
CC(C)c1ccc(NC(=S)N2CCCC2)cc1 | 9.07%
COc1ccc(NC(=O)CC(NCc2ccccn2)C(=O)O)cc1 (stereo not drawn) | 9.59%
Cc1cc(C(=O)NC2CC(C)(C)Cc3c2cnn3-c2cccc(F)c2)n(C)n1 (stereo not drawn) | 3.12%
CS(=O)(=O)c1ccc(-c2nnn(CC(=O)N3CCCCC3)n2)cc1 | 14.4%
CN(C(=O)c1cnc2n(c1=O)CCS2)C1CCCCC1 | 15.2%
CCOC(=O)C1CCCN(c2c(NCC3CCCO3)c(=O)c2=O)C1 (stereo not drawn) | 15.4%
CCCC(C)n1[nH]c(=O)c2c1NC(=O)CSC2c1ccc(OC)c(OC)c1 (stereo not drawn) | 23.3%
COc1cc(C#Cc2c(-c3cncn3C)n(C)c3ccc(-c4ccc(OC)c(OC)c4)cc23)cc(OC)c1 | 9.82%
Cc1ccc(CCC(=O)Nc2ccc([N+](=O)[O-])cc2)o1 | 15.8%
CC(=O)Nc1ccc(N2C(C(C)=O)=NN(c3ccc(Cl)cc3)C2c2sccc2C)cc1 (stereo not drawn) | 9.38%
COc1ccc(C2=Nn3c(nnc3-c3ccccc3)SC2)cc1OC | 16.4%
Cc1ccc2c(c1)C1CN(C)CCC1N2C(=O)c1ccco1 (stereo not drawn) | 3.6%
Cc1ccc(/C=N/NC(=O)Cn2cncn2)cc1 | 17.2%
O=C(CSc1n[nH]c(-c2ccccc2)n1)c1ccccc1 | 12.4%
Cc1nc([N+](=O)[O-])c(C(=O)OCc2ccccc2)n1C | 11.6%
CCCC(NC(=O)Cc1c(C)c2cc3c(C)c(C)oc3c(C)c2oc1=O)C(=O)N[C@@H](Cc1ccccc1)C(=O)O (stereo partly drawn) | 0.847%

SMILES | hERG current change (%, negative = inhibition) at 1uM
CCOC(=O)CNC(=O)CN1C(=O)CCS(=O)(=O)c2ccccc21 | 11.8%
CC1=NN(c2ccccc2)C(=O)/C1=C\c1sccc1C | 1.72%
O=C(COc1ccc2c(c1)C(=O)CC1(CCCCC1)O2)NCc1ccccc1 | 1.9%
COc1cc(/C=C/C(=O)c2ccccc2O)cc(OC)c1OC | 12.3%
CCOC(=O)N1CCC(N2Cc3cccc(C(=O)NCc4ccccc4OC)c3C2=O)CC1 | -25.1%
CCn1c(=O)cc(OCC(=O)Nc2ccccc2N2CCN(C)CC2)c2ccccc21 | -11.4%
Nn1cc(-c2ccccc2)nc1SCC(=O)NCCc1ccccc1 | 4.46%
CCCCc1cc(=O)oc2cc(C)cc(OCC(=O)NCc3ccccn3)c12 | -10.4%
COc1ccc(/C=C/C(=O)c2c(O)cc(C)oc2=O)c(OC)c1 | 2.14%
N#Cc1cccc(CSc2ncnc(N)n2)c1 | 19.4%
O=C(CC1SCCNC1=O)Nc1ccccc1Cl (stereo not drawn) | 7.37%
N=C1C(c2nc3ccccc3s2)=C(O)CN1Cc1ccco1 | 8.72%
NC(=O)c1ccc[n+](Cc2ccccc2)c1.[I-] | 4.8%
Cc1ccc(NS(=O)(=O)c2ccc(Cl)c(C(=O)Nc3ccccc3-c3nc4ccccc4[nH]3)c2)cc1C | 18%
CCN(Cc1ccccc1)S(=O)(=O)CCNC(=O)c1ccc(OC)cc1 | 10.4%
O=C(N/N=C/c1ccccc1C(=O)O)c1ccc(COc2cccc3cccnc23)cc1 | 3.16%
CC(=O)Nc1scc(-c2ccccc2)[n+]1-c1ccc(C)cc1.[Br-] | 15.5%
CCCCCCNC(=O)c1c(O)c2ccccc2[nH]c1=O | 16.7%
Cc1ccc(S(=O)(=O)c2c(C)nn(C(C)(C)C)c2OC(=O)C(C)C)cc1 | 6.09%
COCCC(=O)N1CCC(Oc2ccc(C(=O)N(C)Cc3cc(C)no3)cc2)CC1 | 11%
Cc1nc(SCC(=O)NCc2ccc3c(c2)OCO3)c(C#N)c2c1CCCC2 | 2.38%
CC(C)CN(C1CCS(=O)(=O)C1)S(=O)(=O)c1ccc(C(C)C)cc1 (stereo not drawn) | 0.473%
O=C(c1cc(-c2ccc(Br)cc2)on1)N1CCCCCC1 | 11.5%

SMILES | hERG current change (%, negative = inhibition) at 1uM
Cc1cc(C)cc(NC(=S)NCCN(C2CCCCC2)C2CCCC2)c1 | -59.7%
Cc1ccc(-n2nc3c(=O)n(CC(=O)NCc4ccccn4)nc(C)c3c2C)cc1 | 8.87%
NC(=O)c1ccc([N+](=O)[O-])cc1SCc1ccccc1 | 9.07%
COc1cc(C(=O)NCC2(c3ccccc3)CCCC2)cc(OC)c1OC | 6.99%
CCCCOc1ccc(C(C)NC(=O)CCS(=O)(=O)Cc2ccccc2F)cc1 (stereo not drawn) | 8.41%
COC(=O)C1=C(c2cccc(C#N)c2)C[C@@H]2CC[C@H]1N2C(=O)NCc1ccc(F)cc1 | 10.4%
Cc1nc(-c2cccc(NC(=O)Cc3ccccc3)c2)cs1 | 6.93%
S=C(NCCc1ccccc1)Nc1nccs1 | 6.27%
Nc1ccc(CC2SC(=O)NC2=O)cc1 (stereo not drawn) | 9.3%
O=C(Nc1ccccc1)Nc1cccc(-c2nnco2)c1 | 17.9%
Nc1cc(N)nc(SCC(=O)Nc2ccccc2)n1 | 7.86%
Cc1cccc(-n2ncc3c(NCCCO)ncnc32)c1 | 14.5%
CCOP(=O)(OCC)C(NC(=O)c1cccc([N+](=O)[O-])c1)C(Cl)(Cl)Cl (stereo not drawn) | 13%
O=C(Cc1cccs1)NCCN1CCOCC1 | 12.3%
CC(NC(=O)c1ccc(CS(C)(=O)=O)cc1)c1ccc(-n2ccnc2)cc1 (stereo not drawn) | 8.47%
CC(C)(CO)NS(=O)(=O)c1ccc2c(c1)Cc1cc(S(=O)(=O)NC(C)(C)CO)ccc1-2 | 9.43%
CCOCCCNC(=O)CN1C(=O)c2ccccc2Sc2ncccc21 | 12.3%
CCOC(=O)c1[nH]c2cc(OC)c(OC)cc2c1N | 11.4%
O=C(OCc1ccccc1)/C(=C/c1cccc(Br)c1)NC(=O)c1ccco1 | -9.62%
Cc1ccccc1-n1c(C)c(C#N)c(=O)c(-[n+]2ccccc2)c1[S-] | 12.5%
COc1ccc(NC(=S)N2CCN(C(c3ccccc3)c3ccccc3)CC2)cc1OC | 4.63%
O=C(Nc1cc([N+](=O)[O-])ccc1F)C1CC1 | 14.7%
CCN1CCC(N2CCN(c3ccccc3OC)CC2)CC1 | 18.4%

SMILES | hERG current change (%, negative = inhibition) at 1uM
Cc1cccc(N=C(N2CCOCC2)P(=O)(N2CCOCC2)N2CCOCC2)c1 | 12.5%
CCn1c(COc2cccc3cccnc23)nnc1SCC(=O)O | 4.82%
CN(C)S(=O)(=O)c1cccc(C(=O)NCCNC(=O)c2cccc(S(=O)(=O)N(C)C)c2)c1 | 10.6%
COc1ccc(/C=N/NC(=O)C(=O)Nc2ccccn2)cc1OC | 7.61%
CCOC(=O)c1[nH]c2ccc(Br)cc2c1NC(=O)CCN1CCCC(C)C1 (stereo not drawn) | -66.8%
COC(=O)C1=C(C)N2C(=O)CSC2=NC1c1ccc2c(c1)OCO2 (stereo not drawn) | -1.18%
Cn1c(N)c(C(=O)COC(=O)CCC(=O)c2cccs2)c(=O)n(C)c1=O | 1.35%
CCc1nn2c(=O)cc(COc3ccc(NC(=O)c4ccco4)cc3)nc2s1 | 7.74%
Cc1ccccc1C(=O)N=c1sccn1C | 22.7%
O=C(Cc1c(Cl)cccc1Cl)OCC(=O)N1CCc2ccccc2C1 | 8.9%
CCOc1ccc(/C=C2\SC(=S)N(CCC(=O)Nc3ccccc3C(=O)O)C2=O)cc1 | 15.7%
CC(C)c1nnc(NC(=O)C2CCCN2C(=O)Nc2cccc(Cl)c2)s1 (stereo not drawn) | 8%
N#CC1(c2ccccc2)CCCN1C(=O)c1ccco1 (stereo not drawn) | 9.64%
CC(C)(C)OC(=O)N1CCC[C@@H]1CO | -7.52%
Cc1ccc(-n2nc3c(c2NC(=O)c2cccs2)CSC3)cc1 | 11.3%
Nn1c(SCc2ccccc2)nc2c(cnn2-c2ccccc2)c1=O | 0.0219%
Cc1cc(C(=O)NC2CCCN(Cc3ccc(Cl)cc3)C2)n(C)n1 (stereo not drawn) | -11.5%
CC(=O)Nc1ccc(S(=O)(=O)Nc2cc(C)ccn2)cc1 | 11.2%
O=C(O)C1CCN(C(=O)COc2ccc3c4c(c(=O)oc3c2)CCC4)CC1 | 10.3%
CC1CCCC(C)N1/N=C/c1ccc(C#N)cc1 (stereo not drawn) | -0.56%
CCc1nnc(NS(=O)(=O)c2ccc(N/C=C\C(=O)c3ccc4ccccc4c3)cc2)s1 | 2.9%
